The campaign covered roughly 46,000 compounds. About 60 (0.1%) were called active. Not shown: some 3% with an inconclusive outcome. The call rests on the fitted dose curve; in most records, active means well fitted inhibition curve with a large enough effect; inconclusive means small, poorly fitted or top-dose-only effect; inactive means no such curve, though single readings can be large or run the other way. The list shows a part of the results.
Assay: Primary qHTS assay for Inhibitors of ovarian cancer metastasis using an organotypic tumor microenvironment (TME) model. Further: nearly all actives have a fitted effect of over 65% in size.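 On activity change, negative = inhibition: plate controls were DMSO wells for no effect and tomatine positive control wells for full effect.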
Details: SKOV3ip1-GFP adhesion/invasion on 3D omental model, fluorescence; series mostly up to 45.8 µM; activity change, negative = inhibition: at the top concentration
Summary of the method: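 qHTS, 4-pt dose (0.36-46 umol/L); SKOV3ip1-GFP, 1,200 cells/well, no FBS; primary omental fibroblast/mesothelial co-culture 48 h pre-grown; 2 h RT + 16 h 37 C; PBS wash, 4% PFA; GFP count 488/509 nm.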

Activity change, negative = inhibition, inactive:
CCN1C(=O)CC(C(=O)Nc2ccc(OC)cc2)SC1=Nc1ccc(C)c(C)c1 (centres undefined) 8.15%, CCOc1ccc(-c2ccc(CO)o2)cc1N 0.646%, CCc1cccc(NC(=O)CCS(=O)(=O)c2ccc(C)cc2)c1 -8.44%, Cc1ccc(N2CCN(C(=O)c3nn(C)c4c3CSc3ccccc3-4)CC2C)cc1 (centres undefined) 5.87%, O=S(=O)(Nc1nc2n(n1)C(c1ccccc1)C=C(c1ccc(Cl)cc1)N2)c1ccccc1 (centres undefined) -34.3%, COc1ccc(-c2noc(-c3ccccc3NC(=O)c3cc(OC)c(OC)c(OC)c3)n2)cc1 -8.97%, COc1ccc(C2CC(=O)c3c([nH]c(C(=O)OCc4ccccc4)c3C)C2)cc1OC (centres undefined) -8.69%, CCOc1cc(C2c3c(oc4ccc(F)cc4c3=O)C(=O)N2Cc2ccc(C)cc2)ccc1O (centres undefined) -25.2%, O=C(COc1ccccc1F)Nc1nnc(S(=O)(=O)N2CCCCCC2)s1 -6.26%, COc1ccccc1N1CCN(C(=O)CSc2nc(-c3ccc(C(C)C)cc3)no2)CC1 -1.3%, COc1ccc(Nc2nnc(-c3ccc(C)c(S(=O)(=O)N4CCOCC4)c3)c3ccccc23)cc1 7.69%, CCCCNC(=O)C1CCN(Cc2nc(-c3ccc(OC)c(OC)c3)oc2C)CC1 0.633%, COc1cc(Nc2ncc3c(n2)-c2ccc(Cl)cc2C(c2c(F)cccc2OC)=NC3)ccc1C(=O)O -9.48%, Cc1ccccc1Cc1c(C)nc2nc(SCC(=O)NC(C)c3ccccc3)nn2c1C (centres undefined) 1.03%, CCOC(=O)c1c(C)oc2nc(C)nc(NCCCN3CCN(c4cccc(C)c4)C(C)C3)c12 (centres undefined) -6.33%, Cc1ccc(-c2noc(-c3ccc(NCC4CCCO4)c([N+](=O)[O-])c3)n2)cc1 (centres undefined) -0.747%, CCCCOc1cccc(C(=O)N(Cc2ccc(Cl)cc2)C2CCS(=O)(=O)C2)c1 (centres undefined) -0.235%, COc1ccc(CCNC(=O)CSc2nnc(-c3ccc(C)cc3)c(-c3ccc(C)cc3)n2)cc1OC 3.59%, Cc1cc(=O)[nH]c2nnc(SCCC(C)C)n12 -5.23%, CCOc1ccc(C(=O)NCCS(=O)(=O)N2CCN(c3cccc(Cl)c3)CC2)cc1 0.353%, CC(=O)c1ccc(N2CCN(C(=O)CS(=O)(=O)c3cccc4nsnc34)CC2)cc1 1.31%, COc1cccc(C2=NN(S(C)(=O)=O)C(c3cn(-c4ccccc4)nc3-c3cccs3)C2)c1 (centres undefined) 3.22%, COc1ccc(-c2[nH]c(-c3ccc(OC)c(OC)c3)nc2SCC(=O)Nc2ccccc2)cc1 6.06%, Cc1cccc(NC(=O)c2oc3ccc(S(=O)(=O)N4CCCCC4)cc3c2C)c1C 3.57%, COc1ccc(C(=O)c2cn(Cc3ccccc3F)c3ccc(F)cc3c2=O)cc1 1.75%, O=C(c1cccc(Cl)c1)N1CCC(c2nc3c(nnn3Cc3ccc(F)cc3F)c(=O)[nH]2)CC1 2.39%, Cc1ccc(-c2nnc(Nc3ccc(Cl)cc3)c3ccccc23)cc1S(=O)(=O)NCC1CCCO1 (centres undefined) 7.84%, Cn1ccc2cc(S(=O)(=O)N3CCCN(C(=O)Nc4ccc(Br)cc4)CC3)ccc21 -1.16%, CCN(C(=O)Cn1nc2c3cc(F)ccc3n(Cc3cccc(C)c3)cc-2c1=O)c1cccc(C)c1 -3.96%, COc1ccc(NC(=O)c2c(NC(=O)COc3ccc(Cl)cc3)sc3c2CCCCC3)cc1 -0.0777%, Cc1cccc(-c2nc3cc(NC(=O)Cc4ccc(Cl)cc4)ccc3o2)c1 0.234%, CC1=C(C(N)=O)C(c2cccc(C)c2)n2nc(-c3ccc(Cl)cc3)nc2N1 (centres undefined) 0.0811%, CSc1ccccc1NC(=O)C1=CC(c2ccc3c(c2)OCO3)=NS(=O)(=O)N1C 6.97%, CCOc1ccc(-c2nc3c(c(CC)nn3-c3ccccc3)c3cc(OC)c(OC)cc23)cc1 -13.7%, CCOC(=O)c1ccc2c(c1)N(CC(=O)Nc1cc(F)ccc1F)C(=O)c1ccccc1S2 6.55%, N#Cc1cc2c(=O)n3ccccc3nc2n(-c2nnc(SCc3ccc(F)cc3)s2)c1=O 16.8%, COc1ccc(Cn2nnc3c(=O)[nH]c(C4CCCN(C(=O)c5ccccc5Cl)C4)nc32)cc1OC (centres undefined) 1.43%, COc1cc(OC)c(NC(=O)N2CCOc3ccc(C)cc32)cc1Cl -5.02%, Cc1nn(CCCC(=O)NCc2ccccc2)c(=O)c2c1sc1ccccc12 5.03%, CCOc1ccccc1NC(=O)C1CCN(S(=O)(=O)c2ccc(Br)cc2)CC1 0.492%, Cc1ccc(-n2nc(C(=O)N3CCCCC3C)c(=O)n(C)c2=O)cc1 (centres undefined) -8.68%, CCOC(=O)N1CCc2c(sc3c2c(=O)n(Cc2ccccc2)c(=O)n3Cc2cccc(Cl)c2)C1 19.8%, COc1cc(NC(=O)C2=C(C)Nc3nnnn3C2c2ccc(SC)cc2)c(OC)cc1Cl (centres undefined) 14.1%, CC1CN(C(=O)CCC(=O)NCc2cccs2)c2ccccc2O1 (centres undefined) -3.41%, Cc1ccc(CSc2nc(=O)c3c(C)cc(C)nc3n2C2CC2)cc1 16.9%, CCOC(=O)c1cc(-c2ccc(F)cc2)n(CCC(=O)Nc2ccccc2OC)c1C -5.6%, COC(=O)c1ccc2nc(C)cc(Nc3ccc(O)cc3)c2c1 -22.5%, Cc1ccc2c(c1)c(=O)c1ccccc1n2CCCC(=O)Nc1ccc(F)cc1F -3.66%, CCOc1ccc(N2CC(c3nc4ccccc4n3CCCOc3ccc(OC)cc3)CC2=O)cc1 (centres undefined) -1.85%, COCCNC(=O)CSc1nnc(-c2ccc(OC)c(OC)c2)c(-c2ccc(OC)c(OC)c2)n1 1.56%, O=S(=O)(c1ccccc1)c1nc(-c2cccc(Cl)c2)oc1NCc1ccccc1 -6.81%, COc1cccc(Cc2nc3ccccc3nc2SCC(=O)N2CCc3ccccc32)c1 -3.88%, CCOC(=O)c1ccc(NC(=O)C(=O)NCc2ccco2)cc1 9.88%, Cc1cccc(C2NC(=O)c3c(sc4c3CCN(C)C4)N2)c1O (centres undefined) -4.96%, COC(=O)c1cc(Cl)c(NC(=O)/C=C/c2ccc(Cl)cc2Cl)cc1OC -4.73%, Cc1c(C(=O)NCCN(C)C)oc2c1-c1nn(Cc3ccccc3Cl)cc1CC2 5.26%, COc1ccc(N(CC(=O)N2CCN(c3cc(C)ccc3C)CC2)S(=O)(=O)c2c(C)noc2C)cc1 15.9%, CCOC(=O)c1ccc(Nc2nc(C)cc(C)n2)cc1 -16.8%, CC(Sc1nc(-c2ccccc2)c(C#N)c(=O)[nH]1)C(=O)Nc1ccc(F)cc1 (centres undefined) 3.8%, CCCCOc1ccc(S(=O)(=O)Nc2cccc(-c3ccc(N4CCOCC4)nn3)c2)cc1 3%, COc1ccccc1-c1c(C)nn2c(N3CCN(c4ccc(Cl)cc4)CC3)cc(C)nc12 3.84%, CC(C)CCn1c(SCc2ccc(F)cc2Cl)nc2ccsc2c1=O -3.66%, COc1ccc(-c2c(C)nn3c(N4CCC(C(=O)NCCC(C)C)CC4)cc(C)nc23)cc1OC 94.5%, Cc1ccc(-n2ncc3c(NNC(=O)c4ccccc4C)ncnc32)cc1 -26.9%, CC(C)c1ccc(C2c3c(-c4ccccc4O)n[nH]c3C(=O)N2CCc2ccccc2)cc1 (centres undefined) -28.5%, COc1ccc(Cl)cc1NC(=O)CCCn1c(=O)c2cccn2c2cccnc21 6.49%, COc1ccc(CNC(=O)Cc2c(C)c3c(cc(C)c4c(C)coc43)oc2=O)cc1 -0.0135%

outcome, inactive:
O=C(NC1CCCC1)c1ccc2c(c1)N(Cc1ccc(F)cc1)C(=O)c1ccccc1S2, CCc1ccc(C2c3c(n[nH]c3C)C(=O)N2c2ccc(C)cc2)cc1 (centres undefined), Cc1ccc(CNC(=O)CN(c2cc(C)cc(C)c2)S(=O)(=O)c2c(C)[nH]c(=O)[nH]c2=O)cc1, CC(C)CCNC(=O)CSc1nc2ccsc2c(=O)n1Cc1ccccc1Cl, CCCCNC(=O)CSc1nc2n[nH]c(C)c2c(=N)n1-c1ccccc1CC, CCC1CN(C(=O)Nc2cccc3c2CCCC3)c2cc(C)ccc2O1 (centres undefined), COc1ccccc1NC(=O)N1CC=C(c2c[nH]c3ccccc23)CC1, COc1ccc(CNC(=O)CN(C)c2nn3c(=O)cc(C)nc3s2)cc1, COc1cc(C(=O)Nc2ccccc2OCc2cc(=O)n3cc(C)sc3n2)cc(OC)c1OC, CCOc1ccccc1C(=O)N(Cc1ccc(N(C)C)cc1)Cc1ccco1, CCOC(=O)CCN(Cc1ccccc1)S(=O)(=O)c1csc(C(N)=O)c1, O=C(NCCCN1CCN(c2ccc(F)cc2)CC1)c1cc2c(s1)-c1ccccc1OC2, Cc1ccc(C)c(NC(=O)C(=O)NCC(c2cccnc2)N2CCN(c3ccc(F)cc3)CC2)c1 (centres undefined), COc1ccc(CNC(=O)c2oc3c(c2C)-c2nn(Cc4ccccc4Cl)cc2CC3)cc1, Cc1ccc(S(=O)(=O)c2cn(C)c3cc(N4CCN(c5ccccc5)CC4)c(F)cc3c2=O)cc1, COc1ccc(NC(=O)c2c(NCc3ccc(C)o3)sc3c2CCC(C)C3)cc1 (centres undefined), COc1ccc(NC(=O)Cn2c(=O)n(-c3ccc(Cl)cc3)c(=O)c3c(C)c(C(=O)N(C)C)sc32)cc1Cl, O=C(NC1CC(=O)N(c2ccccc2)C1)C1CCCC1 (centres undefined), COc1ccc(Br)c2c1-c1nc(NC(=O)c3ccccc3SC)sc1C2, Cc1cccc(Oc2nc3c(C)cccn3c(=O)c2/C=C(\C#N)c2nc3ccccc3s2)c1, CCOC(=O)c1ccc(NC2=CC(c3ccc(Br)cc3)N(c3ccc(C(=O)OCC)cc3)C2=O)cc1 (centres undefined), CCc1ccc(-c2[nH]c3c(c2-c2c(-n4cccc4)n(C)c(=O)n(C)c2=O)c(=O)n(C)c(=O)n3C)cc1, Cc1ccc(Cn2c(=O)c3c(nc4n3CCN4c3cc(C)cc(C)c3)n(C)c2=O)cc1, CC1=C(C(=O)Nc2ccccc2)C(c2ccc(C(=O)O)cc2)n2nc(SCC(=O)c3ccc(C)cc3)nc2N1 (centres undefined), CCCN1CCN(CC2=C(C(=O)OCC)C(c3ccc(Cl)cc3)NC(=O)N2)CC1 (centres undefined), COCCCNC(=O)c1ccc(NC(=O)N2CCCCc3ccccc32)cc1, COc1ccc(-c2nc(CCNC(=O)c3cc(OC)c(OC)c(OC)c3)cs2)cc1

Source: PubChem BioAssay AID1963576 (National Center for Advancing Translational Sciences (NCATS), 2024)
